Experimental data from the supplement of paper PMC11417369.
± gives the standard deviation of the averaged measurements. This is one part of the list.

Each sequence was assayed on PfAP2-I AP2 domain 3 (GST-tagged) (assay: gcPBM binding intensity (ln(normalized median fluorescence intensity)); higher = stronger DNA binding).
Summary of the method: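 Binding of GST-tagged P. falciparum DNA-binding domains, expressed in E. coli and used at about 25 μg on average, was carried out for 1 h in 1× PBS containing 1% milk, 0.2 mg/ml BSA, 0.5% salmon testes DNA and 0.03% Triton X-100. The target was an Agilent 4 × 180k array of primer-extended double-stranded 36-bp intergenic genomic probes plus negative controls, read with Alexa488 anti-GST antibody at 488 nm. Binding intensity is the highest Masliner-normalised natural-log median intensity across replicate spots of either probe orientation.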

Sequence	gcPBM binding intensity (ln)
ATAAAATATATATATATAAAAATAAATACATAAATA [GTGCAC_negctrl_site157]	7.51 ± 0.26
CAAACAAACAGACACACACACACACCCAAAAATGAT [CACACA_site2430]	7.99 ± 0.39
TCAATATTAAATTATTGTACATGTATGTATATATAT [XGTACX_site3861]	8.44 ± 0.47
TTTTTTTTTTTTTTTTTACACACTTTATTCAAACAA [CACACA_site9360]	8.21 ± 0.73
TTTATATAAATTTTTTGTACACAAGTAAAAACGCGT [XGTACX_site2459]	7.93 ± 0.52
ACACAAATAAATATAACATATATATTATATTATATT [CACACA_negctrl_site710]	7.64 ± 0.2
TATTTAAAATAATGTGCAAAAGAATAAATAAATAAA [TGCATGCA_negctrl_site194]	9.21 ± 0.3
TTGTAAGAAAGACACACACACACATATAAATATGTA [CACACA_site6516]	7.61 ± 0.54
TTCATTTTCATATATTGTACAAAATTTTATAAGGTT [XGTACX_site4522]	7.99 ± 0.45
TATATATATATATATACACACATACAGATATATATT [CACACA_site4629]	9.38 ± 0.69
TATATAAGAACTTTTACACACATGAAAATGTAGATA [CACACA_site7711]	7.52 ± 0.51
TTACTATTATTATTTTTTATTTTTATTTTATTTATT [TGCATGCA_negctrl_site269]	7.71 ± 0.52
CACTAAAAGAAACACACACACACACCCATATATATA [CACACA_site4151]	8.44 ± 0.75
ATATACACATATACATGTACAAATATATATACACAT [XGTACX_site2986]	7.92 ± 0.5
TAAAATAAAAAAGTAGTACACACTTCACGATATTTT [CACACA_site3896]	8.06 ± 0.11
TTAAAAGTAAGCAAAGTGCATATAACAAAAGTAAAG	10.01 ± 0.092
AATATAAAACTTTAGAGTACTTATCATTAAAATATA [XGTACX_site4509]	7.66 ± 0.47
ATTAATAATGAAAAAAAACACACGGTACATTCAAAG [CACACA_site1302]	7.99 ± 0.74
TATTAAACTTGACACACACACACACGCATATATAAA [CACACA_site6496]	8.07 ± 0.47
TACGGGAAAGATAAGAAACACACGGAAAATTAGACG [CACACA_site1661]	8.12 ± 0.61
TTTTTTAATACATATGCATGTTCAAGTACGAAAAAA [TGCATGCA_site641]	7.83 ± 0.8
ATATATTTTATACATACACACATATAAATATTTTTT [CACACA_site7780]	7.99 ± 0.54
GGAACAAATAATATCACACATATATATATATATATA [CACACA_site5670]	9.31 ± 0.57

Sequence	gcPBM binding intensity (ln)
TACGCAACCAAAAGTTGTACTAATTTTTTTTTTTTG [XGTACX_site7432]	7.49 ± 0.4
TAATAAATATATTGAAGTACTTATAAAAAGCAATAT [XGTACX_site6262]	8.38 ± 0.52
TTCATGTCCTATTAATGTACTCTACACACATATAAG [XGTACX_site899]	7.91 ± 0.4
AAAAAAAAAAAAAAAACACACACATATATATATATA [CACACA_site8571]	9.4 ± 0.39
TGTATATAATCGAGTGCACACACAAAAAAAAAGTGA [CACACA_site8417]	9.93 ± 0.27
TTTATTTATTTTTGTTGTACACTTGTATATATTATT [XGTACX_site6486]	8.22 ± 0.58
ATTTTATATACACTTTGTACTTATTTTATTCTTCTT [XGTACX_site4200]	8.06 ± 0.88
ATATATATATATAATACACACTAAAGTAACATAATA [CACACA_site5580]	9.08 ± 0.014
TATATATATAAATACACACACACATATATATATATA [CACACA_site4585]	9.35 ± 0.48
GTATATAATTTATATTGTACGCATATTATTATCATT [XGTACX_site7277]	7.88 ± 0.2
TCATTTTACAGATGTGCATGTGAATCAATCTATTTA [TGCATGCA_site787]	7.78 ± 0.54
AATATACAAATTACAAGTACAAATCAATATTATATG [XGTACX_site7521]	7.59 ± 0.53
AAAAAAAAAAAAAAAACACACAAACAAATGAATAAA [CACACA_site5769]	8.76 ± 0.66
TGTAGTTTTTATTTATGTACGCATAACATAATTTAA [XGTACX_site104]	8.01 ± 0.071
AGAATTTAGAAACAATGTTGTATATGTAATACCTTT [XGTACX_negctrl_site149]	7.46 ± 0.61
TATATATATAAAAAAAGTACGTATTTAATAAAAATA [XGTACX_site4992]	8.34 ± 0.39
GATATTATGTGTTTGGTATTTCGATCTTGTCAGGAC [CACACA_negctrl_site426]	7.69 ± 0.65
ATTTCTATATATTGTGCATGCCATTACACCAAATAT [TGCATGCA_site813]	8.45 ± 0.79
AGAAAGGATATTATATGTACATATCTTTGTATTTTT [XGTACX_site5040]	7.54 ± 0.58
CATACCCATAAACACACACACATATATACCTATATA [CACACA_site4745]	7.87 ± 0.44
TTTTTAATTCAAAAAACTGTATGTTATATGTCAAAT [CACACA_negctrl_site72]	7.66 ± 0.44
TTCATTTTATTTTAAGTGCATATTTTTATTTTTTTG	8.82 ± 0.099
TAGTATGATAACTTGGGTACATAAATATGGAGTATC [XGTACX_site1296]	8.06 ± 0.51

Sequence	gcPBM binding intensity (ln)
TATATAAATAAAAAAAGTACATTACTTTTTAATTTA [XGTACX_site285]	7.4 ± 0.4
ATCATACCTTTTAATGTACACACATTTCTTTTTTGT [CACACA_site8198]	8.15 ± 0.58
ATGGAATAATCACGTACACACAAGAAAAAAAAAAAT [CACACA_site527]	8.01 ± 0.5
GGATAATATATTAGAACACACATATATATGTAAAAA [CACACA_site185]	7.9 ± 0.64
ATTACAAATACAAACACACAAATGTTTTTCATTCAA [CACACA_site7639]	7.63 ± 0.39
TTTTATTTGACAAGCACACACTTAAATATATATATA [CACACA_site5792]	9.1 ± 0.071
AAACAAAAAATAAAATGTACATTTATTACGATAAGT [XGTACX_site2392]	8.14 ± 0.57
TAGTATAATATGAACACACACACACCGACAAAAAAA [CACACA_site5151]	8.14 ± 0.55
ATATAATTTATATATTCACACAAGGAATACTTTTAT [CACACA_site5506]	7.67 ± 0.44
AATTGAAAAAGAAATTGTACATTTTATTTTTATTAT [XGTACX_site1973]	7.54 ± 0.46
ATACATATATATATATGTACATATGTATTTTTTATT [XGTACX_site105]	7.84 ± 0.34
AATAAAATATATTCCTGTACATATGATTCTTTTTTT [XGTACX_site7980]	7.63 ± 0.49
TTTACATATTTATATACACACTTTTGCGTGCGTGGT [CACACA_site6647]	7.94 ± 0.51
ACTATACAGTTATACACACACATATATCTATAATAT [CACACA_site6283]	8.16 ± 0.51
AATGTACAAATACGTACACACATATATATATATATA [CACACA_site1542]	9.44 ± 0.35
GTATAAAATATTTTATGTACATAATATATATATATA [XGTACX_site2489]	9.01 ± 0.16
AAATAAAGGAAATGTATATCAACATTAAAATAAGGC [CACACA_negctrl_site441]	8.08 ± 0.68
TTTTACAATAACAATACACACTATAATATGTAAATA [CACACA_site6772]	7.88 ± 0.43
CATTTAAAATTTGTTTGTACATATATATATATATAT [XGTACX_site6729]	9.34 ± 0.67
ATATATATATATATATGTACTTATGTCATCATTAAA [XGTACX_site5316]	9.65 ± 0.38
TATATGTATGTTTGTGTGCACACATAAATATTATAT	9.79 ± 0.042
ACGAAGTATATGAATACACACATATTTTTAATGAAA [CACACA_site4070]	7.4 ± 0.67
TTTTTAATCAGAAATATTTATTAAAGAATTTTATAG [GTGCAC_negctrl_site725]	7.32 ± 0.34

Sequence	gcPBM binding intensity (ln)
ATATACATAATTTGGAGTACAATATCATATAAATAT [XGTACX_site6334]	7.99 ± 0.11
AGTAAATTTGATGGTCGTACAAAAAAAAAGTAGGAC [XGTACX_site2600]	8.12 ± 0.64
CTTTTTTTTTTGGGGGTGCATGCAAGACATATATTT [GTGCAC_site9660]	10.2 ± 0.11
ACATAACTTATATATACACACAATACAAATATATAT [CACACA_site2774]	7.92 ± 0.56
ATAATTTCTATTTCACAAAAAAAAAAAAAAAAAAAA [CACACA_negctrl_site1012]	8.1 ± 0.98
ACTAAAAGGCTTAAATGTACATATTATATATATATA [XGTACX_site5897]	9.09 ± 0.14
GAATAATTAAAAGGTAGTACAAAGGTTATCAAAAGG [XGTACX_site8496]	8.15 ± 0.52
GATATGATTATGTGATGGTGTTTTTGATAGATATTT [CACACA_negctrl_site1445]	7.76 ± 0.49
AGAAAACCGAAAGAGACACACAACATGTCGATTTAG [CACACA_site3764]	7.48 ± 0.85
TTGTTCTTTTGAAAGGTGCAAAAGAAAAATAATTAA	11.1 ± 0.54
ATATATATATGTTAGGTGCATATATATTTTGTGGAT [GTGCAC_site9964]	10.7 ± 0.59
ATAAAAACTACATTCACACAAAAAAAAATCTACAAA [CACACA_site6109]	7.55 ± 0.46
AATAATATTAATAAAAGTACATGTGTAATATATATA [XGTACX_site5922]	8.46 ± 0.67
ATAAAGATAATATATGCACACATATAAATATATAAA [CACACA_site9153]	8.91 ± 0.33
ATATATATAATATATTGTACATATAATATATATATA [XGTACX_site4792]	8.84 ± 0.042
ACATCTAGGCTTATTTTATGATACATGTGAATATAT [TGCATGCA_negctrl_site325]	7.67 ± 0.72
GTTTTTGAGTAGTACACACACAATAAGGATGGATTC [CACACA_site3192]	8.29 ± 0.19
TCAATAAATATACATACATGCATACATACATACATA [TGCATGCA_site197]	7.99 ± 0.54
GAACATTTATTGTGTGTGCACAATTCTTTTTTAACC [GTGCAC_site9697]	10.2 ± 0.14
TGTGTTAATATGAATTTAAACATAAATAAATAAATA [CACACA_negctrl_site1589]	7.84 ± 0.72
